Scores with a large standard error are left out. Not listed are two conditions whose scores span a narrow range. Read del as a deletion of the residues named and ins as an insertion between two positions. For part of these data: The data file names ogerin without a concentration.
B1: GPR68, Q15743 (parent)
chain: MGNITADNSSMSCTIDHTIHQTLAPVVYVTVLVVGFPANCLSLYFGYLQIKARNELGVYLCNLTVADLFYICSLPFWLQYVLQHDNWSHGDLSCQVCGILLYENIYISVGFLCCISVDRYLAVAHPFRFHQFRTLKAAVGVSVVIWAKELLTSIYFLMHEEVIEDENQHRVCFEHYPIQAWQRAINYYRFLVGFLFPICLLLASYQGILRAVRRSHGTQKSRKDQIQRLVLSTVVIFLACFLPYHVLLLVRSVWEASCDFAKGVFNAYHFSLLLTSFNCVADPVLYCFVSETTHRDLARLRGACLAFLTCSRTGRAREAYPLGAPEASGKSGAQGEEPELLTKLHPAFQTPNSPGSGGFPTGRLA

Legend:
[1] = variants of: B1; assay: cAMP reporter score (Enrich2 score, wild type = 0); higher = more signal; HEK293T, FACS bins
[2] = variants of: B1; assay: surface expression score (Enrich2 score, wild type = 0); higher = more signal; HEK293T, FACS bins

Variant	cAMP reporter score ([1]; pH 5.5)	cAMP reporter score ([1]; pH 6)	cAMP reporter score ([1]; pH 6, modulator: ogerin)	cAMP reporter score ([1]; pH 6.5, modulator: ogerin)	surface expression score [2]
G314V	0.378	-0.882	0.231	-0.153	0.283
G314W	-0.072	-0.109	0.264	0.473	-0.048
G314Y	0.711	0.413	0.848	0.173	0.148
G314_A316del	-0.264	-0.392	-0.595	-0.144	-0.932
G314_R315insGS	0.961	1.07	0.964	1.05	1.01
G314_R315insGSG	0.169	-0.055	0.251	0.341	0.382
R315_A316insGSG	0.668	0.118	0.6	1.39	1.01
R315_R317del	1.13	0.66	0.687	1.36	0.607
A316C	-0.398	-0.593	-0.641	-0.415	-0.453
A316D	0.596	-0.336	0.855		1.08
A316E	0.067	0.11	0.193	-0.024	-0.055
A316F	0.284	-0.217	0.393	-0.033	0.105
A316G	0.611	0.519	1.04	0.746	1.18
A316H	-0.094	-0.596	-0.209	-0.015	-0.224
A316I	0.912		0.886	0.823	1.4
A316K	2.21		1.99	2.3	1.1
A316L	0.825	0.217	0.703	-0.131	0.205
A316M	1.5	0.699	1.53	0.919	0.602
A316N	0.026	-0.128	0.328	-0.054	0.522
A316P	0.337		0.657	2.23	1.42
A316Q	-0.76		0.229	-0.313	0.523
A316R	1.08	-0.052	0.506	0.866	1.17
A316S	0.052	0.523	0.399	0.426	0.152
A316T	0.495		0.911	0.533	0.311
A316V	-0.394	-0.515	-0.447	-0.358	-0.057

Variant	cAMP reporter score ([1]; pH 5.5)	cAMP reporter score ([1]; pH 6)	cAMP reporter score ([1]; pH 6, modulator: ogerin)	cAMP reporter score ([1]; pH 6.5, modulator: ogerin)	surface expression score [2]
A316W	-0.094		0.822	0.687	0.614
A316Y	1.06	-0.332	0.965	0.121	-0.181
A316_E318del	0.599	-0.585	0.401	0.04	-0.335
A316_R317insGSG	1.61	1.05	1.44	1.68	0.901
A316del	-0.967		-0.163	-0.056	-0.451
R317A	0.784	2.83		2.04	1.12
R317C	-1.14	-0.697	-1.42	-0.924	-0.749
R317D	-0.494	-1.02	-0.178	-0.181	0.266
R317E	0.362	-0.723	0.601	-0.612	0.405
R317F	0.925		-0.392		-1.28
R317G	0.311	-0.638	0.153	-0.274	0.381
R317H	0.731	-0.755	0.053	-0.277	0.09
R317I	0.491	-0.236	0.577	0.196	-0.399
R317K	-0.482	1.94	0.321	0.508	-0.419
R317L	1.15	-0.36	1.42	0.743	0.81
R317M	-0.42	0.381		0.842	-0.155
R317N	0.113	0.321	0.106	0.252	0.506
R317P	1.44	1.55	2.67	0.246	1.84
R317Q	0.349	1.91	0.71	0.931	1.5
R317S	1.29	1.36	1.21	0.865	0.543
R317T	0.071	0.227	0.92	0.192	0.535
R317V	0.109	-0.041	0.394	0.029	-0.237
R317W	1.68		1.34	0.732	0.008
R317Y	-0.711	-1.08	-1.01	-1.03	-2.15
E318_A319del	0.612	-0.253	0.173	0.219	-0.128

Variant	cAMP reporter score ([1]; pH 5.5)	cAMP reporter score ([1]; pH 6)	cAMP reporter score ([1]; pH 6, modulator: ogerin)	cAMP reporter score ([1]; pH 6.5, modulator: ogerin)	surface expression score [2]
E318_A319insGSG	1.36	1.19	1.17	1.81	1.11
E318_Y320del	1.33	0.124	1.03	0.734	0.344
A319C	-0.344	-0.469	0.024	-0.109	0.566
A319D	0.505	-0.18	0.569	1.17	0.618
A319E	0.193		0.339	0.436	0.102
A319F	-0.347	-1.17	-0.927	-1.45	-1.03
A319H	0.977	-0.056	0.161	1.33	
A319I	0.776		0.046	-0.324	-0.116
A319K	0.981	0.867	0.301	1.43	
A319L	0.342	-0.559	0.689	0.533	-0.066
A319M	0.604	0.704	1.35	0.78	0.45
A319N	-0.12	0.637	-0.699	-0.208	-0.056
A319P	0.349	0.583	0.523	0.516	0.107
A319Q	-0.455	0.029	0.49	-0.163	-0.098
A319R	0.451	0.359	0.411	0.258	-0.253
A319T	0.493	-1.05	0.278	0.183	0.472
A319V	0.487	-0.348	0.581		0.891
A319W	0.303	-0.787	-0.281	-0.427	
A319Y	-0.196	-0.945	-1.43	-0.991	-1.64
A319_Y320insGSG	0.646	1.18	0.906	0.372	0.396
A319del	0.568	0.699	0.909	0.784	1.14
Y320_L322del	0.775	0.359	0.851		1.4
P321_L322insG	0.644	-0.197	0.697	-0.262	0.568
P321_L322insGSG	0.319	0.106	1.27	0.342	0.971
P321del	1.3	0.247	1.14	1.03	0.053

Variant	cAMP reporter score ([1]; pH 5.5)	cAMP reporter score ([1]; pH 6)	cAMP reporter score ([1]; pH 6, modulator: ogerin)	cAMP reporter score ([1]; pH 6.5, modulator: ogerin)	surface expression score [2]
L322del	-1.12		-0.6	1.08	1.26
G323_A324del	0.884	0.3	0.998	0.758	-0.239
G323_A324insG	-1.02	0.165	-0.358	0.37	-0.261
G323_P325del	0.37	0.354	0.423	0.628	0.02
G323del	0.899		0.669	1.12	0.273
A324C	0.382		-0.669	0.602	
A324D	-0.64	0.028	-0.789	0.343	-0.173
A324E	0.379	0.09	0.492	-0.312	0.307
A324F	0.718	-0.032	0.593	0.088	-0.143
A324G	1	-0.468	1.24	1.28	1.21
A324H	0.238	0.928	0.793	-0.531	-0.098
A324I	-0.129	0.664	0.546	0.353	-0.122
A324K	0.682	0.686	0.983	0.523	0.51
A324L	0.565	-0.327	0.509	0.241	-0.034
A324M	1.31	0.488	1.85	1.25	1.38
A324N	0.478	0.702	2.2	1.84	1.11
A324P	2.73	2.06		0.618	3.6
A324Q	0.827		1.29	1.19	1.05
A324R	0.649	0.771	0.915	1.22	0.071
A324S	-0.179	-0.702	1.29		
A324T	0.159	0.124	0.088	0.004	0.216
A324V	0.364	0.692	0.649	0.569	0.347
A324W	1.84	0.175	1.77	1.68	0.358
A324Y	-0.241	0.724	0.576	0.264	0.074
A324_E326del	0.505	-0.582	0.357	-0.441	-0.492

Variant	cAMP reporter score ([1]; pH 5.5)	cAMP reporter score ([1]; pH 6)	cAMP reporter score ([1]; pH 6, modulator: ogerin)	cAMP reporter score ([1]; pH 6.5, modulator: ogerin)	surface expression score [2]
A324_P325del	0.141	0.357	0.576	0.534	0.43
P325_E326del	-0.214	-0.443	0.087	-0.384	-0.542
P325_E326insGSG	1.35		0.628	1.46	1.76
P325del	0.777	0.65	1.55	1.95	0.262
E326_A327insGS	1.45	0.671	1.35	1.55	2.66
E326_A327insGSG	1.08	1.3	1.87	2	1.68
A327_S328insG	1.55	0.365	0.566	1.25	0.888
A327_S328insGS	1.05	0.907	1.03	1.07	1.09
A327_S328insGSG	0.977	0.781	1.3	1.52	1.45
S328_G329insGS	0.728	0.838	0.781	0.676	0.568
G329A	1.9	0.718	1.76	0.842	0.645
G329C	0.519	0.879	1.12	0.205	0.059
G329D	-0.771	-0.216	-0.737	-0.693	-0.186
G329E	0.578		1.03	2.08	1.32
G329F	-0.202	-0.239	-0.605	-0.858	-0.522
G329H	-0.045	-0.34	0.356	-0.316	-0.245
G329I	1.13	0.803	1.27	1.32	-0.16
G329L	1.55	0.884	1.59	2.37	1.4
G329M	0.67	1.43	1.41	0.433	0.239
G329N	1.14	1.65	1.02	2.71	0.87
G329P	0.759	0.011	0.75	1.48	1.58
G329R	1.86	-0.226	1.71	1.05	0.411
G329S	1.13		0.699	0.663	1.19
G329T	-0.363	0.211	-0.119	-0.132	0.249
G329V	2.18	1.23	2.42	2.47	0.613

— the GPR68 mutational scans of Howard et al. (2025)
